Laboratory results reported in US20240115649A1, “CASPASE INHIBITION TO ENHANCE REGENERATION AND REPAIR AFTER SKIN OR GUT INJURY AND TO TREAT BACTERIAL OR VIRAL INFECTIONS” (The Johns Hopkins University, priority 2020, published 2024).
Like-named read-outs stand apart in the source and are kept apart here.

Tests used:
[1] = tested on: CA-MRSA strain USA300 LAC::lux
Source text: (§1) In vivo mouse models of bacterial skin infections. All animal studies were approved by the Johns Hopkins University Animal Care and Use Committee. For all experiments, 6-8-week-old sex- and age-matched mice were used. The dorsal backs of anesthetized (inhalation isoflurane [2%]) mice were shaved and inoculated via intradermal (i.d.) injection of CA-MRSA strain USA300 LAC::lux (3×10^7 CFU (25, 26)), S. pyogenes strain Xen20 (5×10^5 CFU (42)) or P. aeruginosa strain Xen41 (5×10^6 CFU (43)) in 100 μL of PBS using a 29-gauge insulin syringe. In some experiments, an anti-TNF mAb or isotype control mAb was administered via i.p. injection on days −1, 0 and 1 of the S. aureus skin inoculation.
(§2) Measurement of total lesion size. Total lesion size (cm^2) was measured from digital photographs of the back skin of anesthetized mice (2% isoflurane) using ImageJ software and a millimeter ruler as a reference.
In vivo whole animal bioluminescence and fluorescence imaging. In vivo bioluminescence imaging (BLI) to provide an approximation of the in vivo bacterial burden (when used in conjunction USA300 LAC::lux, Xen20 or Xen41 bioluminescent bacterial strains) and in vivo fluorescence imaging (FLI) (when used in conjunction with ASC-Citrine mice) were performed on anesthetized mice (2% isoflurane) using a Lumina III in vivo imaging system (IVIS) (PerkinElmer). For in vivo BLI, data are presented on a color scale overlaid on a grayscale photograph of the mice and quantified within a 1×10^3 pixel circular region of interest (ROI) as total flux (photons/s). ASC-Citrine FLI signals were measured using a 488 nm excitation wavelength and a 507 nm emission wavelength and an exposure time of 0.5 seconds. In vivo FLI data are presented on a color scale overlaid on a grayscale photograph of the mice and quantified within a rectangular ROI as total radiant efficiency ([photons/s]/[mW/cm^2]).
Ex vivo CFU enumeration. Skin tissue homogenates were obtained by performing a 10-mm lesional skin punch biopsy (Acuderm) and homogenizing each specimen (Pro200 Series homogenizer; Pro Scientific) in Reporter Lysis Buffer (Promega) containing protease inhibitor cocktail tablets (Roche Life Sciences) at 4° C. Ex vivo CFUs were counted after plating serially diluted skin tissue homogenates overnight on TSA plates.
Histology. Skin punch biopsy specimens (10 mm) were collected on day 3, fixed in formalin (10%) and embedded in paraffin. Sections (4 μm) were mounted onto glass slides and stained with hematoxylin and eosin (H&E) and Gram stain and digitally scanned by the Johns Hopkins Reference Histology Laboratory, according to guidelines used for clinical specimens. The images were analyzed using Aperio ImageScope (v12.4) image analysis software (Leica Biosystems). Dermonecrosis area (mm) was determined by manually measuring the width of dermonecrosis observed in each H&E section. The abscess area was determined by manually outlining the neutrophilic abscess in each H&E stained section and image analysis calculation of the area. Bacterial band width (mm) was determined by manually measuring the width of the bacterial band in each Gram-stained section.

[2] = tested on: P. aeruginosa strain Xen41; assay: P. aeruginosa skin infection model; settings: mortality of 40% of the untreated mice
Source text: as §1, §2
In vivo whole animal bioluminescence and fluorescence imaging. In vivo bioluminescence imaging (BLI) to provide an approximation of the in vivo bacterial burden (when used in conjunction USA300 LAC::lux, Xen20 or Xen41 bioluminescent bacterial strains) and in vivo fluorescence imaging (FLI) (when used in conjunction with ASC-Citrine mice) were performed on anesthetized mice (2% isoflurane) using a Lumina III in vivo imaging system (IVIS) (PerkinElmer). […]

[3] = ASC^−/− mice, 20 mg/kg i.p. at 4 hours, vs untreated
[4] = Gasdermin D^−/− mice, 20 mg/kg i.p. at 4 hours, vs untreated
[5] = IL-1β^−/− mice, 20 mg/kg i.p. at 4 hours, vs untreated
[6] = TNF/IL-1R^−/− mice, 20 mg/kg i.p. at 4 hours, vs untreated
[7] = TNF^−/− mice, 20 mg/kg i.p. at 4 hours, vs untreated
[8] = WT mice administered αTNF mAb on days −1, 0 and 1, vs untreated
[9] = WT mice, H&E sections, day 3, vs untreated
[10] = caspase-1/11^−/− mice, 20 mg/kg i.p. at 4 hours
[11] = caspase-1^−/− mice, 20 mg/kg i.p. at 4 hours
[12] = caspase-11^−/− mice, 20 mg/kg i.p. at 4 hours

CC(C)[C@H](NC(=O)c1ccc2ccccc2n1)C(=O)N[C@@H](CC(=O)O)C(=O)COc1c(F)cccc1F [Q-VD-OPH, Quinoline-val-asp-difluorophenoxymethyl ketone]
in vivo BLI imaging signals ([1]; ASC-Citrine mice, 6 hours following Q-VD-OPH administration, vs untreated): no difference | in vivo BLI signals [1, 3]: substantially reduced | skin lesions [1, 3]: substantially reduced | in vivo BLI signals [1, 4]: substantially reduced | skin lesions [1, 4]: substantially reduced | in vivo BLI signals [1, 5]: substantially reduced | skin lesions [1, 5]: substantially reduced | in vivo BLI signals [1, 6]: no significant difference | lesion sizes [1, 6]: significantly smaller lesion sizes | in vivo BLI signals [1, 7]: no significant difference | lesion sizes [1, 7]: significantly smaller lesion sizes | skin lesion sizes ([1]; WT C57BL/6 mice, single dose 20 mg/kg i.p. at 4 hours after inoculation, vs vehicle or untreated): rapidly and substantially reduced skin lesion sizes | in vivo BLI signals ([1]; WT mice administered isotype control mAb, vs untreated): decreased in vivo BLI signals | in vivo BLI signals [1, 8]: no significant difference | lesion sizes [1, 8]: significantly smaller lesion sizes | bacterial band length ([1]; WT mice, Gram-stained sections, day 3, vs untreated): decreased bacterial band length | abscess area [1, 9]: decreased | dermonecrosis width [1, 9]: decreased dermonecrosis width | bacterial burden (in vivo BLI signals and ex vivo CFU on day 3) ([1]; WT mice, single dose 20 mg/kg i.p. at 4 hours, vs vehicle or untreated): rapidly and substantially reduced | in vivo BLI signals [1, 10]: markedly decreased | skin lesion sizes [1, 10]: markedly decreased | in vivo BLI signals [1, 11]: markedly decreased | skin lesion sizes [1, 11]: markedly decreased | in vivo BLI signals [1, 12]: markedly decreased | skin lesion sizes [1, 12]: markedly decreased | mortality following bacterial dissemination [2]: none of the mice treated with Q-VD-OPH succumbed to the infection
